Each structure is given as a SMILES string. In all, about 310,000 compounds went through this assay and about 2,200 (0.71%) showed an effect of 50% or more. The effect is printed as a negative number. This is one part of the list.

Sequence of human ether-à-go-go-related gene (hERG) potassium channel (Q12809 whole entry, looked up): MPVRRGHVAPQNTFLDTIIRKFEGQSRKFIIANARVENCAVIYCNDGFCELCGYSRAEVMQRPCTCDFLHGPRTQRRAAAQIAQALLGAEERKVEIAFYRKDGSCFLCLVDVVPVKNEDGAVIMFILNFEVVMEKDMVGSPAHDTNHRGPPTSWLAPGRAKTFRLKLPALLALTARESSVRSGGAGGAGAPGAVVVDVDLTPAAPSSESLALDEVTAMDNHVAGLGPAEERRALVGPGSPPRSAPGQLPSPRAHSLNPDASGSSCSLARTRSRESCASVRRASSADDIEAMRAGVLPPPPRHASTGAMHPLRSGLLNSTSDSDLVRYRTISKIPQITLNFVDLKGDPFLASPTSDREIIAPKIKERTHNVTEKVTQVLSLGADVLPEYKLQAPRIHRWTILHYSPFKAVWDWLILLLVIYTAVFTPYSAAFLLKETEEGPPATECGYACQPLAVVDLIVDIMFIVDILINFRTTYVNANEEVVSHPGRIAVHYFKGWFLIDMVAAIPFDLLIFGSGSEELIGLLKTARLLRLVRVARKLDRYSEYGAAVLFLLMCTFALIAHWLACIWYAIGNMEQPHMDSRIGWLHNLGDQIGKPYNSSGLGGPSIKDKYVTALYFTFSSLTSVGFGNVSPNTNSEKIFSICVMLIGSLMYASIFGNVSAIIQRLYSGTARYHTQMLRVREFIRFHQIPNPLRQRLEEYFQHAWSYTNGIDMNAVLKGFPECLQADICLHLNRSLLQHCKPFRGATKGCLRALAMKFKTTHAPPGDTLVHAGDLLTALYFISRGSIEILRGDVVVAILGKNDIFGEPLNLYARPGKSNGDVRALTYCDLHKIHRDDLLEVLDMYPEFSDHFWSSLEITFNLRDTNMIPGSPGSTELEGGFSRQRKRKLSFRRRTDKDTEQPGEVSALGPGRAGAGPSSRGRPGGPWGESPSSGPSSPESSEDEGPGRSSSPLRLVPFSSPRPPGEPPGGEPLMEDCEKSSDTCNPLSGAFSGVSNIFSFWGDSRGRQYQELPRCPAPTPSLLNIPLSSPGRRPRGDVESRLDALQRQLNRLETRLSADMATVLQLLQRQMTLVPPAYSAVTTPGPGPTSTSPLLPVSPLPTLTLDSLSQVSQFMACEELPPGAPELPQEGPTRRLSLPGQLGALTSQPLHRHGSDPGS

This test has as its target human ether-à-go-go-related gene (hERG) potassium channel (human, UniProt Q12809). The test can be described thus: primary screen, population patch clamp on CHO cells stably expressing hERG.
Consider `COc1ccc([C@H]2Cc3cccc(O)c3C(=O)O2)cc1O`, for which the “hERG current change (%, negative = inhibition) at 1uM” value was found to be 8.6%.

Regarding `COC(=O)[C@H](CC(C)C)NC(=O)NCCC1=CCCCC1`, the “hERG current change (%, negative = inhibition) at 1uM” value turned out to be 12.6%.

As to `O=P(Nc1ccccc1Cl)(c1ccccc1)c1nc2c(s1)CCCC2` (centres unmarked), the “hERG current change (%, negative = inhibition) at 1uM” value is reported as -6.45%.

In the case of `O=C(C1CCCN(Cc2ccc([N+](=O)[O-])cc2)C1)N1CCCCC1.O=C(O)C(=O)O` (centres unmarked), the “hERG current change (%, negative = inhibition) at 1uM” value is given as -1.74%.

As to `CCOC(=O)C1=C(C)NC(=O)C1CC(=O)O` (centres unmarked), the “hERG current change (%, negative = inhibition) at 1uM” value is given as 27.8%.

In the case of `CCCCNC(=S)Nc1ccc2nc3n(c(=O)c2c1)CCCCC3`, the “hERG current change (%, negative = inhibition) at 1uM” value was -24.7%.

Turning to `COC(=O)C1(C)Nc2ccccc2C(=O)N1c1ccccc1OC` (centres unmarked), the “hERG current change (%, negative = inhibition) at 1uM” value is on record as 9%.

Take `CSc1nnc2ccc(-c3ccccn3)nn12`: the “hERG current change (%, negative = inhibition) at 1uM” value came out at 13.2%.

For `COc1ccc(-c2cc(C(F)(F)F)n3ncc(C(=O)O)c3n2)cc1OC`, the “hERG current change (%, negative = inhibition) at 1uM” value is given as 13.4%.

For `O=C(O)/C=C/c1ccc(S(=O)(=O)Nc2ccc3[nH]c(=O)[nH]c3c2)cc1`, the “hERG current change (%, negative = inhibition) at 1uM” value is 14.3%.

As for `CC(C)N1CCC(NC(=O)Nc2ccc3c(c2)OCO3)CC1`, the “hERG current change (%, negative = inhibition) at 1uM” value turned out to be 9.69%.

On to `COc1ccc(CCNC(=O)COc2cc(O)c3c(c2)OC(C)(C)CC3=O)cc1`, for which the “hERG current change (%, negative = inhibition) at 1uM” value is 5.73%.

For `CN(C)CCCN(C(=O)c1ccc(N2C(=O)CCC2=O)cc1)c1nc2c(F)cccc2s1.Cl`, the “hERG current change (%, negative = inhibition) at 1uM” value was found to be 4.64%.

As to `Cc1sc2nc3ccc(NCc4ccco4)nn3c(=O)c2c1C`, the “hERG current change (%, negative = inhibition) at 1uM” value was found to be 7.05%.

As for `CCN(Cc1cnn(C)c1)Cc1nc(C2(c3ccc(C)cc3)CCCC2)no1`, the “hERG current change (%, negative = inhibition) at 1uM” value is 3.04%.

As to `CCCn1c(CNc2ccccc2O)nc2ccccc21`, the “hERG current change (%, negative = inhibition) at 1uM” value came to 1.37%.

Consider `COc1ccc(C(C(=O)NCC2CCCO2)N(Cc2ccco2)C(=O)c2snc(C(N)=O)c2N)cc1OC` (centres unmarked), for which the “hERG current change (%, negative = inhibition) at 1uM” value is on record as 6.78%.

With `COc1ccc(C(C(=O)NC(C)(C)C)N(C(=O)CCC(=O)Nc2cc(C)on2)c2cccc(F)c2)cc1` (centres unmarked), the “hERG current change (%, negative = inhibition) at 1uM” value is reported as 9.61%.

For the compound `C[C@H]1CN=C(N(C)C)N1CCC1CCCC1`, the “hERG current change (%, negative = inhibition) at 1uM” value is given as 14.9%.

Regarding `CCN(CC)c1ccc2c(C)c(Cl)c(=O)oc2c1`, the “hERG current change (%, negative = inhibition) at 1uM” value came out at 4.68%.

Consider `CC(C)Oc1ccc(Nc2ncnc3ccccc23)cc1.Cl`, for which the “hERG current change (%, negative = inhibition) at 1uM” value stood at 3.47%.

On to `COc1ccccc1OCC(=O)N1CCCC(Nc2cccc(F)c2)C1` (centres unmarked), for which the “hERG current change (%, negative = inhibition) at 1uM” value came to 4.39%.

Turning to `CCC(=O)O/N=C(\N)c1ccc(Oc2cc(C)c(Cl)c(C)c2)c([N+](=O)[O-])c1`, the “hERG current change (%, negative = inhibition) at 1uM” value came out at 12.1%.

In the case of `CCOC(=O)N1CCN(S(=O)(=O)c2ccc(C(=O)N(CCCN(C)C)c3nc4c(F)cc(F)cc4s3)cc2)CC1.Cl`, the “hERG current change (%, negative = inhibition) at 1uM” value is given as 0.648%.

Regarding `O=C(CN1CCN(Cc2ccccc2F)CC1)Nc1ccccc1Cl`, the “hERG current change (%, negative = inhibition) at 1uM” value is 8.26%.

Take `CCNC(=O)NC(=O)COC(=O)CCc1nc(=O)c2ccccc2n1C`: the “hERG current change (%, negative = inhibition) at 1uM” value worked out at 9.3%.

For the compound `Nc1nnnn1/N=C/c1ccccc1OCc1ccc(Cl)cc1Cl`, the “hERG current change (%, negative = inhibition) at 1uM” value is given as 5.55%.

Consider `CCOC(=O)C1CCCN(C(=O)CNS(=O)(=O)c2ccc(Br)s2)C1` (centres unmarked), for which the “hERG current change (%, negative = inhibition) at 1uM” value is -3.27%.

For the compound `COC(=O)C1CCN(C(c2cccs2)c2sc3nc(C)nn3c2O)CC1` (centres unmarked), the “hERG current change (%, negative = inhibition) at 1uM” value was 4.94%.

With `CCC1=NC(c2ccccc2)N(O)C1(C)C` (centres unmarked), the “hERG current change (%, negative = inhibition) at 1uM” value came out at 13%.

On to `CNS(=O)(=O)c1cccc(C(=O)OCC(=O)N2c3ccccc3NC(=O)C2(C)C)c1`, for which the “hERG current change (%, negative = inhibition) at 1uM” value was found to be 1.64%.

For `Oc1ccc(Cl)cc1C1=NCCNC(C(F)(F)C(F)F)=C1`, the “hERG current change (%, negative = inhibition) at 1uM” value is reported as -12.9%.

Regarding `CCN(Cc1ccccc1)C(=O)c1ccc(C)c(S(=O)(=O)N2CCCCC2)c1`, the “hERG current change (%, negative = inhibition) at 1uM” value stood at 11.5%.

In the case of `Cc1ccc(S(=O)(=O)CCC(=O)OCCOc2cccc(Br)c2)cc1`, the “hERG current change (%, negative = inhibition) at 1uM” value turned out to be 0.325%.

Consider `Cc1ccc2[nH]c3c(=O)n(CC(=O)NCCCN(C)Cc4ccccc4)ncc3c2c1`, for which the “hERG current change (%, negative = inhibition) at 1uM” value was -2.53%.

Turning to `CN(CC(=O)N1CCN(c2ccccn2)CC1)S(=O)(=O)c1ccc(Cl)cc1`, the “hERG current change (%, negative = inhibition) at 1uM” value is on record as -3.6%.

Take `COc1ccccc1C(=O)O/N=C(/c1ccncc1)c1ccc([N+](=O)[O-])cc1`: the “hERG current change (%, negative = inhibition) at 1uM” value is on record as 3.12%.

For the compound `O=C1Nc2ccccc2C(=O)N2[C@H](c3cccc(Br)c3)[C@@H]3C(=O)N(Cc4ccccc4)C(=O)[C@@H]3[C@H]12`, the “hERG current change (%, negative = inhibition) at 1uM” value is 9.98%.

`COc1cccc(OCc2cc(/C=N/Nc3ccc(C(=O)O)cc3)ccc2OC)c1`: the “hERG current change (%, negative = inhibition) at 1uM” value was 11.6%.

On to `O=S(=O)(NCCC1=CCCCC1)c1ccc(Br)cc1`, for which the “hERG current change (%, negative = inhibition) at 1uM” value came to 13%.

As to `CCN1CCN(C(=O)N2CCOCC2)CC1`, the “hERG current change (%, negative = inhibition) at 1uM” value amounted to 11.6%.

For the compound `CCCC(=O)Nc1ccc(C(=O)COC(=O)c2cc(C)oc2C)cc1`, the “hERG current change (%, negative = inhibition) at 1uM” value worked out at 5.01%.

`Cc1cccc(NC(=O)Cn2c(O)c(N=NC(N)=S)c3ccccc32)c1`: the “hERG current change (%, negative = inhibition) at 1uM” value is recorded as 4.09%.

As for `O=C(NCC1CCCO1)C1CCN(C(=O)c2ccc(Br)cc2)CC1` (centres unmarked), the “hERG current change (%, negative = inhibition) at 1uM” value turned out to be 5.33%.

`O=C(Nc1ccc2c(c1)OCCO2)C(=S)NCc1ccccc1`: the “hERG current change (%, negative = inhibition) at 1uM” value was 11.8%.

Consider `Cc1ccc(Nc2ncnc3c2nnn3Cc2ccccc2)cc1`, for which the “hERG current change (%, negative = inhibition) at 1uM” value came to 10.2%.

Take `COc1cccc(C2CC(=O)C3=C(C2)Nc2ccccc2N(C(=O)CCC(=O)O)C3c2ccc(F)cc2)c1` (centres unmarked): the “hERG current change (%, negative = inhibition) at 1uM” value is on record as 12.5%.

`Cc1ccc(S(=O)(=O)Nc2ccc3c(c2)n(C)c(=O)n3C)c(C)c1`: the “hERG current change (%, negative = inhibition) at 1uM” value turned out to be 7.61%.

On to `Cn1cnnc1Sc1ccc(C(F)(F)F)cc1[N+](=O)[O-]`, for which the “hERG current change (%, negative = inhibition) at 1uM” value is listed as 6.67%.

Consider `Nc1ccc(N2CCN(c3ccc(Cl)c(Cl)c3)CC2)cc1`, for which the “hERG current change (%, negative = inhibition) at 1uM” value came to 12.4%.

For `CCOc1ccc(NC(=O)CCC(=O)Oc2ccc(C)cc2)cc1`, the “hERG current change (%, negative = inhibition) at 1uM” value was determined as 17.6%.

For the compound `Cc1oc(CC(C)C)cc1C(=O)Nc1cccc2ccccc12`, the “hERG current change (%, negative = inhibition) at 1uM” value was -4.1%.

Consider `Clc1ccc(CONc2ncnc3nonc23)c(Cl)c1`, for which the “hERG current change (%, negative = inhibition) at 1uM” value worked out at 5.61%.

As for `CCN(CC)c1ccc(CN(C(=O)c2cc(OC)c(OC)c(OC)c2)C2CCS(=O)(=O)C2)cc1` (centres unmarked), the “hERG current change (%, negative = inhibition) at 1uM” value worked out at 13%.

As to `CC(C)(C)OC(=O)N1CCN(c2ccc([N+](=O)[O-])cc2)CC1`, the “hERG current change (%, negative = inhibition) at 1uM” value is recorded as -29.6%.

Turning to `Cc1oc(-c2ccccc2F)nc1CS(=O)(=O)CC(=O)NCc1ccccc1Cl`, the “hERG current change (%, negative = inhibition) at 1uM” value came to 4.76%.

For the origin of these results see paper PMC4336329 (PLoS ONE, 2015).
